# Measurements taken from the supplement of paper PMC11417369.
# The list shows a part of the results.
# Test system: PfAP2-HC AP2 domain (GST-tagged)
# Test: gcPBM binding intensity (ln(normalized median fluorescence intensity)); higher = stronger DNA binding
# Outline: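 GST-fused DNA-binding domains of P. falciparum, expressed in E. coli, were applied at about 25 μg on average for 1 h to an Agilent 4 × 180k array of primer-extended double-stranded 36-bp intergenic genomic probes and negative controls. Binding intensity is the highest Masliner-normalised natural-log median intensity across replicate spots of either probe orientation, measured with Alexa488 anti-GST antibody and a 488 nm scan.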
row,Sequence,gcPBM binding intensity (ln)
1,TTTTATACATATTTTACACACTAAAATATACATATA [CACACA_site324],9.73
2,TTATGTTGTAAATGCACACATACATAAACTCAGTTT [CACACA_site5639],9.77
3,ATAAAATAAATATTTTGTTATTTATTTAATCTAATA [XGTACX_negctrl_site404],9.35
4,TAAATATTTTTAGATGCATGCAATAATTACCCAAAG [TGCATGCA_site636],9.69
5,TTTTTTTTTTCTGAAAGTACTAATTTCCTGGAGGAA [XGTACX_site759],9.13
6,TTATTATTATTACTAGTGCATTAATTATATATGTAA,9.48
7,TTTCAAAAAAATAATGTGCACATTAGAAAATAAATA [GTGCAC_site9416],9.78
8,ACCTCATAATATTTAACACACAAAATTAAATGTATG [CACACA_site6898],9.75
9,ATAATGTAAAAGTAAACACACACATATATATATACA [CACACA_site8793],10.7
10,GTCTTAAAAATTAAAACACACGTTCACTTTCATATT [CACACA_site5803],9.91
11,TATATATATATATAATGTACATATATATAATATACA [XGTACX_site1552],9.59
12,ATTTCTACTAAAAATACACACGATGATACAACGAAG [CACACA_site1755],9.68
13,AATTAATAACAAAATAAACACACATATATAAATACA [CACACA_site8456],9.99
14,TTTTAATAAATATACACACACAAAAAAAAAAAAAAA [CACACA_site3971],9.68
15,TTTCACTTTTTCCAAAGTACATATATAAAAATTAAT [XGTACX_site6947],9.2
16,ATATAAAAAAAAAAAAGTACACATAAACAAATGCAT [XGTACX_site4241],9.8
17,AGATTATAAAATTCTACACACATATATACATATATA [CACACA_site3485],9.85
18,GACCAATTCAAATATGCACACAAATTTGAAAACGAT [CACACA_site9202],10
19,AATATATAGAAACACACACACAAAAAAAAAAAAAAA [CACACA_site1326],10.1
20,AATAAAAAGACATTCACACATATATATTATTTATAT [CACACA_site5936],9.81
21,TTAAAATATAATATTCGTACTTATTCAAAAGAAAAA [XGTACX_site2122],9.06
22,ATATGTAGAAGTAATGCACACATATGTATATATATA [CACACA_site8796],10.1
23,CATAATACAGATAACACACACAATTATACATAAAAT [CACACA_site5742],10.2

row,Sequence,gcPBM binding intensity (ln)
1,CTAATGATCATATATACACACACACTAATAAAAAAA [CACACA_site9329],10.4
2,TATATTTAGATATATACACACATTAGCATTTTCATA [CACACA_site6902],9.72
3,AAAGAATTTGCATATACACACAAAAAGATATATACA [CACACA_site6318],10
4,GTATATATTTTTATTTAATAATTTGTTTATTTATTC [CACACA_negctrl_site647],9.73
5,CATACATATACATACAGTACATATTTTTTGTCAATT [XGTACX_site7357],9.81
6,AACGAAAACACTACGTGTACCAAACGTCCTACTAAC [XGTACX_site4915],9.86
7,TTATATGGCTCCATTTGTACGCATCCATGTTTTTAT [XGTACX_site6590],9.84
8,GTATGTATATATATATGTACATACTGTTTATCGTTA [XGTACX_site6168],9.79
9,AAAAAAAAAAAAAAAGCACACATCATATTATAATTC [CACACA_site3355],9.7
10,AAAAAAACATAACAAAATGAAACAAAACAAAAAGAA [GTGCAC_negctrl_site577],9.9
11,AGTTATTAAAAATGTGCATGCAATGGTTTCTCTTAA [TGCATGCA_site634],9.79
12,ATTTATAATGATTTTTTTAGTAATCTTGTTATTTTT [XGTACX_negctrl_site373],9.59
13,AGGAGGTCAGTTCACAGTACCCAGAAACTCTACGAG [XGTACX_site2006],9.28
14,TGAGCTTCAACAATATGTACATAAAATATATTACAT [XGTACX_site4763],9.69
15,TTAATAAAAGCCCATGCACACCTTAGAAAGTTTTAT [CACACA_site8003],9.68
16,GTATTATAGTATAATACACACCCAAATATTAAAAAG [CACACA_site7404],9.95
17,TTTCTTAAAATGTTATGTACATATTTCGTTTCAAAG [XGTACX_site6102],9.49
18,ATATATTTCAAAGGGGTGCAGGCATATTTAAGCAAA,9.64
19,TCTTTTTAATTTATATGTACTTATATTAATTATAAG [XGTACX_site7524],9.59
20,GTGCATATACAAATATGTACTTAAACGTTTTTTTTT [XGTACX_site7362],9.8
21,TTTTTCTTTTGATGTTGTACATATATATCATATAAT [XGTACX_site1189],9.68
22,GTTTATTCATCATACGGTACACATAAATAATATATA [XGTACX_site6931],9.66
23,AAGACTTCTCCATATACACACACCAACAAATATAAA [CACACA_site2779],10

row,Sequence,gcPBM binding intensity (ln)
1,GATGAATAAATCAAAGCACACATACACCCACATATA [CACACA_site7986],11.2
2,TTCGTTTAAATCAAGTGTACATATTATATATAATAT [XGTACX_site7599],9.74
3,ATTTTTTTTTTTTTTTTTTGGTTTTCTTTAGGAGTT [CACACA_negctrl_site1258],9.46
4,CGTTATATATGTATTACATGCAATATATGTACGTAA [TGCATGCA_site274],9.64
5,TAAATAATATCCCTTTGTACGTATTTTTTTTTATTA [XGTACX_site7303],9.77
6,GAAATAAGTTAAAATAGTACGTAGTGTTCCTTAAGT [XGTACX_site6557],9.81
7,TTAGGAAAACAAAAATGTACGCATATATATTATTGA [XGTACX_site8288],9.62
8,TTAAAAATAATATATTGTACACATACTTATTTTAAT [XGTACX_site1348],9.67
9,ATATATCTGTATGGCACACACGGATAAATATATATA [CACACA_site4668],10
10,TATATTTGTACATGATATTTTTTTTTTCTTTTAAAA [CACACA_negctrl_site754],9.43
11,TGTATTTAGAAACATACACACATATTAAGTTTACAT [CACACA_site5689],9.85
12,GGAAAATTATCAATAGCATGCAAAATGTGAATATTA [TGCATGCA_site901],9.86
13,TTTCCTCATTTTATCATACACACTTATTTATATGTG [CACACA_site900],9.86
14,GCCAAAATATAATTTACACACTTATTAAATAATTAT [CACACA_site236],9.62
15,AGAATAATACAAAAATGTACATTAATAAAAAGATAG [XGTACX_site780],10.4
16,ATAGTATCTGGTAGCTGTACGAGTCGTAGAGAGTAG [XGTACX_site2546],9.7
17,TTATTATTTCTTAGTAGTACTATATAATTTTTTTTT [XGTACX_site1847],9.72
18,TAATAACTACAAAAAAAAAAGAAAAATAGAAAAAGG [CACACA_negctrl_site1102],9.58
19,TCGTGTTAAACTTTTACACACAAACTTGCAATAATT [CACACA_site7745],9.94
20,TGCTTTATTATTTATTGTACATGTAAAATGAGAGAG [XGTACX_site2288],9.5
21,TTTGTTTAAATTAAATGTACATAAAGAATAATATAT [XGTACX_site5093],9.57
22,AATTATATGAAATAAACACACATATGTAATATTACA [CACACA_site1928],9.95
23,AGAAGGTAAATAATTTACCCATATATATAAATATAT [GTGCAC_negctrl_site631],9.48

row,Sequence,gcPBM binding intensity (ln)
1,ATTGAATATGGATATGTGCACATATGTATATAAGTA,10.2
2,AAAACATTGTTGAACTGTTTTATTTATAAATATAAG [XGTACX_negctrl_site393],9.27
3,ATATATATACTGTGTACACACATATGTATTTATATA [CACACA_site4600],9.99
4,AAAAAAGTTGTATTTGCACACATAAAAAAAAGATAT [CACACA_site3839],9.93
5,AATTTAAAAATGGACACACACAAAAAATAATACTTA [CACACA_site250],10.7
6,GTATATTATATTGGGTGTACCATATATAATATAATC [XGTACX_site8579],9.53
7,TTATAAATAAAAAATACACACATATATATATATATA [CACACA_site207],9.57
8,AAAAATTAACAAAAGGTGCAATTTATTTATTAACGG,9.6
9,TATTTTAATATGTATACATGCATACCTACTCATACA [TGCATGCA_site779],9.67
10,TAAAATTTTATAAAGGAACACACATTTTTTTTTTTT [CACACA_site8740],9.65
11,AACTTGTATTTATACACACACACACTGTCTTTTTTT [CACACA_site7009],10.5
12,TAGACAAAATATAATGCACACTATTATTTTTATTTA [CACACA_site5508],9.65
13,AAGAAAAATATATAAATAAATAAATATATAAATATA [CACACA_negctrl_site836],9.61
14,TAAAAATATATATGATTGCACTTAGGACAATATATA,9.62
15,GGAAACAAAAAATATATACACACTAATCATAAAAAA [CACACA_site7890],9.82
16,ATTAATATATTATCATGTACACAAAAATAATTTTAT [XGTACX_site7257],9.59
17,TATTCTCTCTTATGAACACACATTTTTATTTTCAAA [CACACA_site7554],9.77
18,TTTTAATAAAAGCCCATGCACACCTTAGAAAGTTTT [CACACA_site346],9.56
19,ATATATATGTGTAAAAGTACATATATTTTGAAATAT [XGTACX_site4024],9.82
20,TAAATATATATTATATGTACTTATATATATATATAT [XGTACX_site4448],9.57
21,TAAATCAGCCATAACACACATACATATATACATAAA [CACACA_site396],9.95
